Here are results for 33 compounds from the supplement of paper PMC8007513.

Where a name gives a salt, the structure may show the parent alone. ± gives the standard error. Hit rate of the full screen: of about 1,300 compounds, about 130 (10%) showed an effect of 50% or more. The entries are a selection whose mix differs from that of the whole data set.

For the assay, the system named is Trichoderma virens ATCC 9645. The assay can be described thus: growth yield (OD600) with compound + IPBC relative to untreated control; higher = less growth inhibition. To be noted: compound concentration: 100 uM, IPBC concentration: 200 ng/ml. In short, it runs like this:
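Trichoderma virens ATCC 9645 spores at 15,000 spores ml^−1 in potato dextrose broth were exposed in 96-well plates to library compounds at 100 μM final, with or without a biocide at 200 ng ml^−1. After growth at 30 °C, OD600 was read at 40 h and 72 h. Values are growth relative to the control without either agent, averaged over duplicate screens.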

For `CN(C)c1cc(NC(=O)CNC(C)(C)C)c(O)c2c1C[C@H]1C[C@H]3[C@H](N(C)C)C(O)=C(C(N)=O)C(=O)[C@@]3(O)C(O)=C1C2=O` [Tigecycline] + CCCCNC(=O)OCC#CI [3-iodo-2-propynyl butylcarbamate (IPBC)], the growth yield (40 h) is 80.7 ± 3.5% and the growth yield (72 h) came to 79 ± 2%.
In the case of `CN(Cc1ccc(C(C)(C)C)cc1)Cc1cccc2ccccc12` [Butenafine Hydrochloride] + CCCCNC(=O)OCC#CI [3-iodo-2-propynyl butylcarbamate (IPBC)], the growth yield was found to be 4.13% (40 h) and 2.73% (72 h).
With `CC(=O)CC(c1ccc([N+](=O)[O-])cc1)c1c(O)c2ccccc2oc1=O` (stereo unspecified) [Acenocoumarol] + CCCCNC(=O)OCC#CI [3-iodo-2-propynyl butylcarbamate (IPBC)], the growth yield runs as follows: (40 h) 76.6 ± 1.3%; (72 h) 89.04 ± 0.32%.
The matching figures for `CCCCCCCCNC(C)C(O)c1ccc(SC(C)C)cc1` (stereo unspecified) [Suloctidil] + CCCCNC(=O)OCC#CI [3-iodo-2-propynyl butylcarbamate (IPBC)]: 5.08 ± 0.32% and 33.1 ± 2.5%.
The matching figures for `S=c1[nH]cnc2nc[nH]c12` [Mercaptopurine] + CCCCNC(=O)OCC#CI [3-iodo-2-propynyl butylcarbamate (IPBC)]: 78.785 ± 1e-14% and 87.47 ± 0.63%.
For the compound `COc1ccc2c3c1O[C@H]1C[C@@H](O)C=C[C@@]31CCN(C)C2` [Galanthamine hydrobromide] + CCCCNC(=O)OCC#CI [3-iodo-2-propynyl butylcarbamate (IPBC)], the growth yield worked out at 88 ± 1.9% (40 h) and 89.98 ± 0.21% (72 h).
For `Cc1nnc(SCC2=C(C(=O)O)N3C(=O)[C@@H](NC(=O)Cn4cnnn4)[C@H]3SC2)s1` [Cefazolin sodium salt] + CCCCNC(=O)OCC#CI [3-iodo-2-propynyl butylcarbamate (IPBC)], in that order: 97.2% and 117 ± 18%.
For `NCC1(CC(=O)O)CCCCC1` [Gabapentin] + CCCCNC(=O)OCC#CI [3-iodo-2-propynyl butylcarbamate (IPBC)], in that order: 94.5 ± 7.8% and 93 ± 2.6%.
For `Cc1cccc(C)c1NC(=O)CN1CCN(CCCC(c2ccc(F)cc2)c2ccc(F)cc2)CC1` [Lidoflazine] + CCCCNC(=O)OCC#CI [3-iodo-2-propynyl butylcarbamate (IPBC)], in that order: 10.3 ± 1.1% and 78.6 ± 7.7%.
As to `CC(=O)O[C@]1(C(C)=O)CC[C@H]2[C@@H]3C=C(C)C4=CC(=O)CC[C@]4(C)[C@H]3CC[C@@]21C` [Megestrol acetate] + CCCCNC(=O)OCC#CI [3-iodo-2-propynyl butylcarbamate (IPBC)], the growth yield came out at 95.9 ± 4.8% (40 h) and 100 ± 2.7% (72 h).
The matching figures for `Nc1nnc(-c2cccc(Cl)c2Cl)c(N)n1` [Lamotrigine] + CCCCNC(=O)OCC#CI [3-iodo-2-propynyl butylcarbamate (IPBC)]: 95.9 ± 3.5% and 99.95 ± 0.52%.
Consider `CC[C@@]1(O)C(=O)OCc2c1cc1n(c2=O)Cc2cc3c(CN(C)C)c(O)ccc3nc2-1` [Topotecan] + CCCCNC(=O)OCC#CI [3-iodo-2-propynyl butylcarbamate (IPBC)], for which the growth yield worked out at 117 ± 6.5% (40 h) and 106 ± 5.6% (72 h).
The matching figures for `Nc1nc(=O)[nH]cc1F` [Flucytosine] + CCCCNC(=O)OCC#CI [3-iodo-2-propynyl butylcarbamate (IPBC)]: 88.5 ± 2.1% and 90.4 ± 0.63%.
For `Clc1cc(Cl)c(OCC#CI)cc1Cl` [Haloprogin] + CCCCNC(=O)OCC#CI [3-iodo-2-propynyl butylcarbamate (IPBC)], in that order: 5.24 ± 0.48% and 2.83 ± 1.6%.
The matching figures for `CC(N)C(O)c1ccccc1` (stereo unspecified) [Phenylpropanolamine hydrochloride] + CCCCNC(=O)OCC#CI [3-iodo-2-propynyl butylcarbamate (IPBC)]: 97.1 ± 7.5% and 101 ± 3.5%.
Consider `Cc1nccn1CC1CCc2c(c3ccccc3n2C)C1=O` (stereo unspecified) [Ondansetron Hydrochloride] + CCCCNC(=O)OCC#CI [3-iodo-2-propynyl butylcarbamate (IPBC)], for which the growth yield amounted to 78.78 ± 0.32% (40 h) and 101 ± 11% (72 h).
As for `CC(=O)NC[C@H]1CN(c2ccc(N3CCOCC3)c(F)c2)C(=O)O1` [Linezolid] + CCCCNC(=O)OCC#CI [3-iodo-2-propynyl butylcarbamate (IPBC)], the growth yield reads like this: (40 h) 79.6 ± 1.4%; (72 h) 85.4 ± 1.5%.
For the compound `CCOCCn1c(N2CCCN(C)CC2)nc2ccccc21` [Emedastine] + CCCCNC(=O)OCC#CI [3-iodo-2-propynyl butylcarbamate (IPBC)], the growth yield (40 h) turned out to be 75.6 ± 1.6% and the growth yield (72 h) is 84.11 ± 0.42%.
Turning to `CC[C@H](C)C(=O)O[C@H]1C[C@H](O)C=C2C=C[C@H](C)[C@H](CC[C@@H](O)C[C@@H](O)CC(=O)O)[C@H]21` [Pravastatin] + CCCCNC(=O)OCC#CI [3-iodo-2-propynyl butylcarbamate (IPBC)], the growth yield was determined as 56.9% (40 h) and 58.5% (72 h).
On to `CNCC[C@@H](Oc1ccccc1C)c1ccccc1` [Tomoxetine hydrochloride] + CCCCNC(=O)OCC#CI [3-iodo-2-propynyl butylcarbamate (IPBC)], for which the growth yield reads like this: (40 h) 78.31 ± 0.48%; (72 h) 87.89 ± 0.84%.
For `O=C(CCCCC(=O)Nc1c(I)cc(I)c(C(=O)O)c1I)Nc1c(I)cc(I)c(C(=O)O)c1I` [Iodipamide] + CCCCNC(=O)OCC#CI [3-iodo-2-propynyl butylcarbamate (IPBC)], in that order: 86.4 ± 3.8% and 92.19 ± 0.73%.
The matching figures for `O=C(O)Cc1cc(I)c(Oc2ccc(O)c(I)c2)c(I)c1` [Tiratricol, 3,3',5-triiodothyroacetic acid] + CCCCNC(=O)OCC#CI [3-iodo-2-propynyl butylcarbamate (IPBC)]: 44 ± 1.8% and 73.41 ± 0.63%.
The matching figures for `COCCCOc1ccnc(C[S+]([O-])c2nc3ccccc3[nH]2)c1C` (stereo unspecified) [Rabeprazole Sodium salt] + CCCCNC(=O)OCC#CI [3-iodo-2-propynyl butylcarbamate (IPBC)]: 97.1 ± 15% and 94.7 ± 5.1%.
For `CCCc1nc2c(C)cc(-c3nc4ccccc4n3C)cc2n1Cc1ccc(-c2ccccc2C(=O)O)cc1` [Telmisartan] + CCCCNC(=O)OCC#CI [3-iodo-2-propynyl butylcarbamate (IPBC)], the growth yield runs as follows: (40 h) 92.3 ± 4.6%; (72 h) 89.8 ± 3.4%.
For the compound `CCCCOC(=O)c1ccc(O)cc1` [Butylparaben] + CCCCNC(=O)OCC#CI [3-iodo-2-propynyl butylcarbamate (IPBC)], the growth yield by setting is: (40 h) 27.5 ± 1.8%; (72 h) 46.9 ± 3.2%.
For `CC(=O)/N=c1/sc(S(N)(=O)=O)nn1C` [Methazolamide] + CCCCNC(=O)OCC#CI [3-iodo-2-propynyl butylcarbamate (IPBC)], in that order: 110 ± 13% and 105 ± 7.7%.
For `CCCCC1C(=O)N(c2ccccc2)N(c2ccccc2)C1=O` [Phenylbutazone] + CCCCNC(=O)OCC#CI [3-iodo-2-propynyl butylcarbamate (IPBC)], in that order: 116 ± 9.8% and 108 ± 10%.
As to `CCCC(=O)Nc1ccc(OCC(O)CNC(C)C)c(C(C)=O)c1` (stereo unspecified) [Acebutolol hydrochloride] + CCCCNC(=O)OCC#CI [3-iodo-2-propynyl butylcarbamate (IPBC)], the growth yield is, setting by setting: (40 h) 91.65 ± 0.79%; (72 h) 93.2 ± 1.8%.
As for `CC(=O)Nc1ccc(OCC(O)CNC(C)C)cc1` (stereo unspecified) [Practolol] + CCCCNC(=O)OCC#CI [3-iodo-2-propynyl butylcarbamate (IPBC)], the growth yield (40 h) worked out at 99.6 ± 11% and the growth yield (72 h) amounted to 103 ± 8.9%.
For `N=C(N=C(N)N)N1CCOCC1` [Moroxidine hydrochloride] + CCCCNC(=O)OCC#CI [3-iodo-2-propynyl butylcarbamate (IPBC)], in that order: 102 ± 6.7% and 101 ± 5%.
The matching figures for `CC(=O)OCC(=O)[C@@]12OC3(CCCC3)O[C@@H]1C[C@H]1[C@@H]3CCC4=CC(=O)C=C[C@]4(C)[C@@]3(F)[C@@H](O)C[C@@]12C` [Amcinonide] + CCCCNC(=O)OCC#CI [3-iodo-2-propynyl butylcarbamate (IPBC)]: 90.4 ± 6.2% and 94.5 ± 5.1%.
Regarding `Cc1c(F)c(N2CCNC(C)C2)cc2c1c(=O)c(C(=O)O)cn2C1CC1` (stereo unspecified) [Grepafloxacin] + CCCCNC(=O)OCC#CI [3-iodo-2-propynyl butylcarbamate (IPBC)], the growth yield reads like this: (40 h) 92.9 ± 9.4%; (72 h) 94.5 ± 5.1%.
The matching figures for `CCOC(=O)c1cncn1[C@H](C)c1ccccc1` [Etomidate] + CCCCNC(=O)OCC#CI [3-iodo-2-propynyl butylcarbamate (IPBC)]: 75.45 ± 0.16% and 90.6 ± 5.9%.
